Test results reported in PubChem BioAssay (NCI).
Where a structure was tested more than once in an assay, its records may differ in their call.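 Assay: single dose, 48 h. Readout: percent growth (0 = no net growth; negative = cell death). Active: <10.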 Certain results were filed several times, with different values. This is not the full list of results. The source may hold further records. The screen tested this drug many times, at the concentration stated with the values; one value stands for one run. Additions like (4×) count equal records among those shown.

Tested on: 786-0 renal
Assay: NCI-60 one-dose screen, 48 h (100 = growth as untreated, 0 = no growth, -100 = all killed)
Conditions: 0.25 µM

COc1cccc2c1C(=O)c1c(O)c3c(c(O)c1C2=O)C[C@@](O)(C(=O)CO)C[C@@H]3OC1CC(N)C(O)C(C)O1 (stereo not given in full)
growth (runs of 2006): inactive: 14.6%, 14.3%
growth (runs of 2007): active: 0.385, 9.22, -2.69, -21.6, -20.4, 1.9% and inactive: 16.1, 23.3 (2×), 11.9 (2×), 21.9, 24.3, 25.7 (2×), 25.2, 28.3, 35.7, 44.2, 23.9, 23.6 (2×), 10.4, 30.6, 19.2, 17.8, 65.9, 30.4, 23.5, 34.5, 25.5 (2×), 28.8, 30.5, 21.6, 18.5, 23.4, 29.3%
growth (runs of 2008): inactive: 42.4, 28.3, 26, 25.7, 30.3, 29, 31.7, 34.6, 33.5, 10.6 (2×), 18.4 (2×), 19.7, 21.5, 23.1, 32, 16.4, 14 (2×), 13.7 (2×), 20.1, 93.5, 20.3, 17, 19.5, 13.5, 40.4, 45.5, 31.2, 34.7, 29.4, 56.3, 13.3, 11.3, 12.4, 14.9% and active: 0.171, 6.89, 1.13, 2.75, 9.79, 7.51, -1.89, 8.66, 9.29, 8.96, 7.07, -13.8%
growth (runs of 2009): active: 6.57, -6.33, 8.86, 6.25, -8.17, 5.62, 3.51, 8.39, 7.19, 9.01, 6.17, 2.4, 7.79, 6.89, 9.25, 9.36, 6.87, 5.07, -7.76, 9.54, 7.78, -19.4, 5.41, -10.9, 9.41, -14.5, -20.8, 4.27, 6.51, 8.51, 8.44, 6.43, 8.99, 4.13, -12.8% and inactive: 29.5, 14.5 (3×), 11.7, 13.5, 29.6, 17.7, 16.4, 22.5, 26.5, 19.9, 13.7, 15.4, 16.7, 17.4 (2×), 12.8, 12, 12.2, 24.3, 10.6, 17.6, 29.2, 11.8, 13.9 (2×), 14, 16.8, 13, 10.9, 10.1, 12.7, 24.8, 25.8, 20.4, 18.2, 15.5%
growth (runs of 2010): inactive: 14.3, 26.9, 12.1, 21.8, 19.5, 17.9, 21.5 (3×), 38.7, 25.3, 32.1, 34.3 (2×), 24.2, 22.9, 24.9, 33.1, 18.6, 27.7 (2×), 34.2, 14.7, 25 (3×), 16.5, 20.9, 31, 19.3, 18.4, 42.8, 22.6, 17.3, 22, 18.3, 23.1, 16.4, 33.9, 33.4, 30.4, 29.5, 24.8, 30.1 (2×), 34.6, 21.9, 40.3% and active: 4.26%, -3.47%
growth (runs of 2011): inactive: 31.5 (2×), 28.6, 38.7, 40.7, 33.6 (2×), 29.1, 32 (2×), 41.1, 54.4 (2×), 40.2, 29.6, 35.6, 25.2, 35.2, 26.3, 29.4, 33.2, 30.5, 31.8, 29.9, 30.1, 28.5, 25.5, 22.7 (2×), 35, 33.4, 15.9, 10.3, 20.6 (3×), 12.9, 22, 17.1, 12.4, 10.2, 12.2, 14.7, 14.6, 24.7, 19.5, 10.8, 19.7, 28.7, 21.8, 16.4, 18.6, 31.7, 23.4% and active: 9.42%
growth (runs of 2012): inactive: 21.5, 11.4, 22.6, 19.4, 22.2, 22 (2×), 17, 24.3, 28.3, 29.7, 17.7 (2×), 20.3, 16.7, 13.7, 15.7 (2×), 16.8, 20, 12.4, 13.5, 15, 13.6, 17.9, 30.4, 29.2, 27.9, 30.6, 26.3, 23, 19.5 (2×), 22.8, 25.4, 11.2, 44.4, 19.2, 63.8, 31, 35.1, 48.1, 43.1, 41.8 (2×), 39.6, 44.5, 34.5, 29.1, 35.6, 37.9, 40, 36.1, 48.3, 46.1, 21.8, 36.9, 42.3, 39.2, 48.5, 52.9, 38.5, 36.8, 42.7, 26.5, 20.5, 26.4, 29.5, 18.1%
growth (runs of 2013): inactive: 18.2, 29.6 (2×), 32.6, 28.4 (2×), 26.2, 46.6, 40.1, 51.1, 54, 37.4, 44.5, 42.7, 44.4, 51.8, 48.7, 34.6 (2×), 37 (2×), 28.9, 33.8, 35.5 (2×), 32.3, 35.7 (2×), 39.6, 43.8 (2×), 45.8, 44.7, 42.6, 42.2, 55.5, 52.4, 46, 31.6, 39.1, 38.9, 44, 46.5, 27.3, 39.3, 27.9, 37.2, 29.1, 34, 19.4, 31.7, 41.7, 21.5, 24.1, 14.2, 14, 12.8 (2×), 24.3, 31.9, 27.7, 30.5, 17, 10.1, 17.3, 20.1, 25.3, 15.4, 21.9% and active: 8.14, 9.53, 4.65, 7.92%
growth (runs of 2014): inactive: 23.1, 23.2 (2×), 18 (2×), 19.1 (2×), 13.8, 16.5 (2×), 13, 12.3, 12.5, 18.5 (2×), 20.6, 20.5, 22, 26.2, 33.4, 31.7, 27.9, 26.7 (2×), 26.9 (2×), 17.7, 25.9 (2×), 18.9, 15.6, 22.6, 20.3, 12.8, 15.8, 12.7, 24.3, 18.3, 23 (3×), 10.8, 10.7, 16.8, 20.9, 22.2, 21.5 (2×), 18.1, 26, 30.8, 14.8, 21.8 (3×), 22.7, 16.6, 21, 14, 21.3, 20.7, 29.8, 19.9, 24.4, 15.4, 21.9% and active: 2.99, 6.54, 6.44, 3.16, 9.51, 8.79, 9.2, 7.88%
growth (runs of 2015): inactive: 28.8, 19.9 (3×), 20.4 (2×), 12 (3×), 22 (4×), 18, 16.9, 17.8, 11.7, 14.2, 33.5, 13.5 (2×), 10.6, 18.8, 19.3, 23.3, 36.2, 31.9, 21.2 (3×), 20.7, 16.6, 16.7, 20, 17.9, 27.2, 15.9, 21.9, 11.6, 20.1, 12.6, 20.5, 11, 18.7, 18.1, 24.8, 15.2, 17 (2×), 12.2, 11.4, 12.4, 22.2 (2×), 13.9, 10.4, 14.4, 23.1, 49.8, 18.2, 12.8, 23, 31.5, 29.8, 16.5, 22.8, 20.9, 24.4, 21.5, 19.7, 24.1, 23.6, 16.1, 19.2, 25.7, 30.5, 21, 35.4, 31.6, 41.1, 34.8, 38.2% and active: 8.7, 9.94, 9.61, 7.89, 2.35%
growth (runs of 2016): inactive: 20.5, 26, 20.1, 22.7 (3×), 36.3, 13.5, 22.2, 25.3, 18.4, 21.7, 22.9, 10.5, 14.2, 12.1, 17.3, 11.2, 16.9, 13.9, 15.7, 18.3, 16.2, 12.4, 16.6 (2×), 24.8, 22 (2×), 12.7 (2×), 13.3, 12.5, 21.8, 15.4, 16, 19.5, 18.5, 14.3, 20.7 (2×), 23.5, 29.4, 24.1, 29, 30.1 (2×), 34.1 (2×), 27.9, 32 (2×), 33.9, 25.2, 28.6, 31.6, 26.3 (2×), 31.2, 33.8, 37.8, 29.9, 24.3, 30.5, 23.1, 31.5 (2×), 33.2, 39.3, 31.8, 36.1, 29.8, 34.7, 32.3, 42.8, 45.1, 41, 30.6, 25, 26.8, 30.7, 30.8, 31.4, 40.8, 27.2, 32.7%
growth (runs of 2017): inactive: 23, 25.9, 21.8, 23.4 (2×), 10.6, 17.7 (2×), 23.2, 11.6, 22.5, 18.3, 11.7, 15.6, 22, 12.2 (2×), 17.2, 16.5 (2×), 12.3, 14.2, 19.9, 14.8 (2×), 17.9, 16.2, 17.8 (2×), 13.6, 13.1, 16.7 (2×), 20, 15.4, 20.5 (2×), 13.4, 16.4, 19.7 (2×), 11.3, 17.4, 19.8 (2×), 14.7, 16.1, 17.5, 25.6, 19.3, 22.8, 26.2, 28.7, 21.6, 29.9, 22.7, 21.3, 29.2, 24.2, 24.1, 17.6, 21, 16.3, 27.1, 17, 14.9 (2×), 20.3, 11.1, 19.2, 11.5, 14.4, 15.9 (2×), 15, 18.6, 16, 13.7, 18.5, 18, 21.7, 16.9% and active: 9.23%
growth (runs of 2018): inactive: 23.4, 25.9 (2×), 17.9, 16.4 (2×), 21.2, 21.7, 19.5, 20.3 (2×), 20, 19.4, 20.5 (4×), 20.2, 17.1, 16, 20.4, 18.1 (2×), 17.4, 14.5, 30.8, 18.3, 18.7, 23.9, 27.9, 30.2, 18.2, 16.3, 19.7, 21.6 (2×), 22.6, 21.8 (2×), 22.5, 18.8, 18.9 (2×), 19.9, 24.2 (2×), 28.6, 22.8 (2×), 22.7, 21.3, 15.4, 13.8, 19.1%
growth (runs of 2019): inactive: 17.8 (2×), 15.3, 11.4, 21.2, 16.7, 15.8, 10.9, 14.4, 12.2, 14.2, 18.6 (2×), 18.4, 18.7, 13.7, 24.4, 18.5, 14.5 (2×), 20.4, 25, 15.9 (2×), 26, 18.3, 21.6, 16.8, 17.3, 15.7, 21, 17, 18.1, 18.9, 16.9, 14.6, 20.1, 11.6, 13.1, 13.3% and active: 7.35%, 9.45%, 9.93%
growth (runs of 2020): inactive: 10, 10.9, 22, 23.2, 22.9, 23, 21.8, 15.7, 17, 18.1, 14.2, 15.4, 31, 16, 19.3 (2×), 23.1, 21.6, 25.9, 23.4, 21.5, 21.9%
